Test results reported in PubChem BioAssay AID1671188 (National Center for Advancing Translational Sciences (NCATS), 2021).
The campaign covered roughly 100,000 compounds. About 250 (0.25%) were called active. This list was built around the results that the source calls inconclusive (neither active nor inactive); the mix of calls is not that of the screen. Calls come from the whole dose curve; as a rule, active = well fitted inhibition curve with a large enough effect; inconclusive = small, poorly fitted or top-dose-only effect; inactive = flat fitted curve, though single readings scatter. No potency is given beside an inconclusive call; the fits are too rough.

target: Alanine aminotransferase 2 (Homo sapiens) (UniProt Q8TD30); test: Primary qHTS assay for inhibitors of Glutamate pyruvate transaminase 2 (GPT2); settings: Recombinant GPT2, coupled pyruvate oxidase/HRP Amplex Red fluorescence; series mostly up to 57.7 µM; note: nearly all actives have a fitted effect of over 60% in size
Sequence of UniProt Q8TD30 (Q8TD30 whole entry, looked up): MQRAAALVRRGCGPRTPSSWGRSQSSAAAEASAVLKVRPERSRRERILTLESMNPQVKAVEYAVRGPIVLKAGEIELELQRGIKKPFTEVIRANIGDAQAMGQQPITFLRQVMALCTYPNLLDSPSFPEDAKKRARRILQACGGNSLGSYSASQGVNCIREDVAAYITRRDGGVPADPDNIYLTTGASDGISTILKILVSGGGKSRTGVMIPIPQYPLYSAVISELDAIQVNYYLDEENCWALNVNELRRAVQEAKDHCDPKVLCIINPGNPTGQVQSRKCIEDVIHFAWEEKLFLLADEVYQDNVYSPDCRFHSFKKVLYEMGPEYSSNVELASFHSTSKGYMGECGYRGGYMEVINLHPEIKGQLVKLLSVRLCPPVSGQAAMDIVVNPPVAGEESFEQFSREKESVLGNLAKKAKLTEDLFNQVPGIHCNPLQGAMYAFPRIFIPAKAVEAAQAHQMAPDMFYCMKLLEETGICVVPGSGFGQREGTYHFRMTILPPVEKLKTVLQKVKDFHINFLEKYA
Procedure, shortened: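 Fluorescence of coupled pyruvate oxidase/HRP/Amplex Red system (50uM Amplex, 30 min, dark) reports pyruvate formed by GPT2. Enzyme reaction: 10ng/uL GPT2, 2mM L-alanine, 250uM a-KG, 30 min room temperature, pH 7.5; 50uM AOA control.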
Potency is the fitted concentration of half-maximal effect; tags give direction and shape of the fitted curve.

| Structure (SMILES) | Potency |
| --- | --- |
| CN1CCN(C2=Nc3ccccc3Sc3ccc(Cl)cc32)CC1 | inconclusive [inhibitor, partial curve, poor fit] |
| CCOc1cc(C(=O)N2CCC(Cc3nc(-c4cnccn4)no3)CC2)cc(OCC)c1OCC | inconclusive [inhibitor, full curve] |
| COCCCNC(=O)c1ccc2oc(-c3ccncc3Cl)nc2c1 | inactive |
| COc1ccc(F)c(CN2CCCC(O)(CN3CCC(C(C)C)CC3)C2=O)c1 (configuration not stated) | inconclusive [inhibitor, full curve, poor fit] |
| CN(C)[C@@H](Cc1ccccc1)C(=O)N1CCC(N2CCC(O)CC2)CC1 | inconclusive [inhibitor, single point] |
| CSc1ncccc1C(=O)NC(C)C(=O)N1CCN(c2ccccn2)CC1 (configuration not stated) | inconclusive [inhibitor, single point] |
| O=C(Nc1ccccc1Cl)N1CCCC2(C1)Nc1cccnc1NC2=NC1CCCC1 (configuration not stated) | inconclusive [inhibitor, full curve, poor fit] |
| CN(C)c1cc(=O)c2ccnc(Nc3cccnc3)c2o1 | inactive |
| Cc1cc(CN2CC(Oc3ccc(F)cc3F)C2)no1 | inconclusive [inhibitor, full curve, poor fit] |
| Cc1ccc(NC(=O)c2ccc3nc(-c4cccc(C)n4)oc3c2)cc1 | inactive |
| O=C(C1CC1)N1CCCCC1c1nc(C2CCOCC2)n[nH]1 (configuration not stated) | inconclusive [inhibitor, partial curve, poor fit] |
| CCOc1cc(C=C2C(=O)N(c3ccccc3)N=C2C)cc(Cl)c1OCC(=O)OC | inconclusive [inhibitor, full curve, poor fit] |
| CC(C)Cc1ccc(S(=O)(=O)N2CCCC(Cn3cnc4cccnc43)C2)cc1 (configuration not stated) | inconclusive [inhibitor, single point] |
| COc1ccc(-c2noc([C@@H]3CCCN3C(=O)CCc3ccccc3)n2)cc1 | inconclusive [inhibitor, single point] |
| CNC(=O)[C@H]1C[C@H](Oc2ccccc2)CN1Cc1sccc1C | inactive |
| COCCn1ccc2c(C3=CCOCC3)nc(-c3cccc4cn[nH]c34)cc21 | inconclusive [inhibitor, single point] |
| Cc1cccc(-c2noc(-c3nc(C)no3)n2)c1 | inconclusive [inhibitor, partial curve, poor fit] |
| CC(C)NC(=O)C1CCN(C(=O)N2CC3CC(C2)[C@H]2CCCC(=O)N2C3)CC1 (some centres not stated) | inconclusive [inhibitor, single point] |
| COC1C(=O)CCC2(CO2)C1(O)C1(C)OC1CC=C(C)C (configuration not stated) | inconclusive [inhibitor, full curve, poor fit] |
| CN1CCN(Cc2nc(C3(O)CCN(C4COC4)CC3)cs2)CC1 | inconclusive [inhibitor, single point] |
| Cc1ccc(C(=O)N[C@H]2CO[C@H]3[C@@H]2OC[C@@H]3Nc2nccc(-c3cccs3)n2)cc1 | inactive |
| O=C1N[C@@H]2CCN(S(=O)(=O)c3ccc(Cl)cc3)[C@@H]2C(=O)N1c1ccc(Oc2ccccc2)cc1 | inconclusive [inhibitor, single point] |
| O=C(Cn1ccn2nc3c(c2c1=O)CCCC3)NCCc1ccccc1 | inconclusive [inhibitor, partial curve, poor fit] |

| Structure (SMILES) | Potency |
| --- | --- |
| C[C@]12C=CC(=O)C=C1CC[C@@H]1C2=CC[C@]2(C)[C@@H](C(=O)CN3CCN(c4cc(N5CCCC5)nc(N5CCCC5)n4)CC3)CC[C@@H]12 | active: 0.708 µM |
| O=C(c1nccc2ccccc12)N1CCc2nc3cc[nH]n3c(=O)c2C1 | inconclusive [inhibitor, single point] |
| COc1ccccc1Nc1ccnc(N2CCCC2C(=O)N2CCOCC2)n1 (configuration not stated) | inactive |
| CCc1ccc(CNC(=O)c2noc(-c3ccc4c(c3)OCO4)n2)cc1 | inconclusive [inhibitor, single point] |
| CN(Cc1cc(-c2ccncc2)no1)C(=O)CCc1cc2n(n1)CCCNC2 | inconclusive [inhibitor, single point] |
| COc1ccc(-c2noc(-c3ccc(N4CCCOCC4)nc3)n2)cc1 | inactive |
| CCOc1ccc(CC(=O)NC2CCN(c3cc(-c4ccccc4)[nH]n3)C2)cc1OCC (configuration not stated) | inconclusive [inhibitor, partial curve] |
| COCCN1C(=O)Cc2ccccc2C1C(=O)NCc1cc(F)ccc1F (configuration not stated) | inconclusive [inhibitor, single point] |
| CCCC(=O)N1CCC(N2C(=O)C3(CCCCC3)C2c2ccncc2)CC1 (configuration not stated) | inconclusive [inhibitor, single point] |
| Cn1ccc(NC(=O)C2(C)COCc3cnc(Nc4ccccc4)nc32)n1 (configuration not stated) | inconclusive [inhibitor, single point] |
| CCOc1ccc(C(=O)N2C[C@@H](CO)[C@H](C(=O)NC)C2)cc1 | inactive |
| CNC(=O)[C@@H](c1ccccc1)N1CCC[C@H]1C(=O)N[C@@H](CO)CC(C)C | inconclusive [inhibitor, single point] |
| COC(=O)[C@@H]1Cc2nc[nH]c2CN1Cc1ccc(OC)c2ccccc12 | inactive |
| COc1ccccc1CNC(=O)C1(c2ccc(NS(C)(=O)=O)cc2)CCCCC1 | inactive |
| CNC(=O)c1cn2cc(-c3ccc(OC)cc3)sc2n1 | inactive |
| CCOc1ccc(C(=O)N2CCC3(CC2)CN(C2CCC2)CC3COC)cc1 (configuration not stated) | inconclusive [inhibitor, single point] |
| CN(Cc1ccc(N2CCNC2=O)cc1)CC1CCCN(CCc2ccc(F)cc2)C1 (configuration not stated) | inactive |
| O=C(NC1CCCCC1)N[C@H]1[C@H](O)[C@@H](Oc2ccccc2)[C@@H]2OC[C@H]1O2 | inconclusive [inhibitor, single point] |
| C[C@@H]1CN(C(=O)c2cnc3sccn3c2=O)C[C@@]1(O)C1CCC1 | inactive |
| CC1=NOC2(CCN([S+](=O)([O-])c3cccs3)C2)C1 (configuration not stated) | inconclusive [inhibitor, single point] |
| CCN1C(=O)C2CC3(CCN(C(=O)c4cnc(C)cn4)CC3)CN2C1=O (configuration not stated) | inconclusive [inhibitor, single point] |
| CC1=C(C(=O)OC(C)C)C(c2ccccc2Cl)N2C(CC(=O)NCC3CC3)=CSC2=N1 (configuration not stated) | inactive |
| COc1ccccc1-c1ccc2ncc(Nc3ccc(CN4CCN(C)CC4)cc3)n2n1 | inconclusive [inhibitor, single point] |

| Structure (SMILES) | Potency |
| --- | --- |
| CC(C)CCNC(=O)N1CC[C@@H]2COC(=O)N(Cc3ccccc3)[C@@H]2C1 | inconclusive [inhibitor, single point] |
| CC(C)(C)CNc1ccc(C(=O)N2CCC(CN3CCCC3=O)CC2)cn1 | inconclusive [inhibitor, single point] |
| O=C(C1CCN([S+](=O)([O-])c2ccccc2)CC1)N1CCC(c2nc3ncccc3[nH]2)CC1 | inactive |
| COc1ccccc1C(=O)N1CCCC2(C1)Nc1cccnc1NC2=NCc1ccccc1 (configuration not stated) | inconclusive [inhibitor, single point] |
| CCN1CCCC2(Cc3ccccc3CN(C(=O)C(C)C)C2)C1 (configuration not stated) | inconclusive [inhibitor, single point] |
| Cc1oc2c(c1C(=O)N1CCOCC1)CN(C(=O)c1ccncc1)CC2 | inconclusive [inhibitor, partial curve] |
| O=C(NC1CCCN(c2cc(-c3ccccc3)[nH]n2)C1)c1c[nH]c2ccccc12 (configuration not stated) | inconclusive [inhibitor, partial curve, poor fit] |
| CN1CCc2cccc3c2C1Cc1ccc(O)c(O)c1-3 (configuration not stated) | inconclusive [inhibitor, single point] |
| Clc1cc(N2CCOCC2)n2nccc2n1 | inconclusive [inhibitor, full curve, poor fit] |
| COc1c(O)cc2c(c1O)C(=O)O[C@H](C)[C@H]2O | inconclusive [inhibitor, partial curve, poor fit] |
| COC1CCN(CC2CCCCCN2C(=O)c2ccc(F)cc2)CC1 (configuration not stated) | inactive |
| Cc1cnc(C2CC2)n1C1CCN(Cc2cn(C)c3ccccc23)C1 (configuration not stated) | inactive |
| COC(=O)[C@H]1[C@H]2C[C@@H]3c4[nH]c5cc(OC)ccc5c4CCN3C[C@H]2C[C@@H](OC(=O)/C=C/c2ccc(O)c(OC)c2)[C@@H]1OC | inconclusive [inhibitor, full curve, poor fit] |
| CC(C)NC(=O)NCc1nnc2n1C(C(=O)N1CCN(c3ncccn3)CC1)CC2 (configuration not stated) | inactive |
| Cc1ccccc1C(=O)NC1CCN(Cc2ccc(-c3ccsc3)cc2)C1 (configuration not stated) | inactive |
| COc1ccccc1-c1cnc(Nc2cncnc2)c2c1CCO2 | inconclusive [inhibitor, single point] |
| CCCCNC(=O)C1CCN(C(=O)c2ncn3c2COC(c2ccc(F)cc2)C3)CC1 (configuration not stated) | inactive |
| O=C(O)CC1(CC(=O)N2CC[C@H]3COC(=O)N3c3cc(F)ccc3C2)CCCC1 | inconclusive [inhibitor, partial curve, poor fit] |
| CNC(=O)N1CCO[C@@H](COc2ccccn2)[C@@H]1c1ccccc1 | inactive |
| Cn1nc(C2CC2)cc1NC(=O)c1ccccc1Cl | inactive |
| COC(=O)c1ccc(N2CCN(C(=O)Cn3nnnc3CN(C)C(C)C)CC2)cc1 | inconclusive [inhibitor, single point] |
